Measured values from the supplement of paper PMC3334620.
Whole data set: some 33,000 sequences, median “E-score (-0.5 to 0.5)” near -0.01, cut for the highest 2% near 0.26. The list shows a part of the results.

biological target: Ste12 (UniProt P13574); assay: PBM E-score (8-mer binding enrichment) (E-score (-0.5 to 0.5)); higher = stronger / more preferred TF binding; most listed sequences are background and not binding sites; details: protein concentration: 200 nM; construct: GST-DNA-binding domain
Summary of the method: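 Each ungapped eight-base word and its reverse complement, pooled, received an E-score from the Universal PBM Analysis Suite. Underlying scans, normalised with masliner, recorded fluorescent anti-GST bound to GST-tagged yeast transcription factors. These were applied at about 100-200 nM to universal all-10-mer Agilent arrays double-stranded by primer extension.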

| Sequence | PBM E-score |
| --- | --- |
| AATTTCCC | -4e-05 |
| AGACCGGA | 0.0341 |
| ATCCCCTA | -0.0687 |
| AACCGGTC | 0.0268 |
| CTTGAAAA | 0.157 |
| AGATCCGA | 0.109 |
| CGAGAGCA | 0.00901 |
| ATTTCCGC | 0.139 |
| CAGGCTAA | -0.123 |
| CGAAAACA | 0.0416 |
| GTTACCTA | -0.134 |
| CATTAGCC | -0.101 |
| AGCCGACC | -0.188 |
| CCACTGAA | 0.0609 |
| TCACCAAA | 0.177 |
| CTTTTAGC | 0.0612 |
| CGTTGAAA | 0.185 |
| ACGAGATG | -0.023 |
| ATGCGATG | 0.00552 |
| GCGTAAAA | 0.163 |
| GCTCTCTA | -0.256 |
| CTGGCCAG | -0.0692 |

| Sequence | PBM E-score |
| --- | --- |
| GGATGATA | 0.0634 |
| AACTCTAA | 0.0259 |
| CTCTAAAC | 0.0484 |
| GCGAGCAA | -0.0697 |
| CACTGAGA | -0.104 |
| AAATGAGA | 0.0747 |
| ACACATTC | 0.0383 |
| AAGTCATG | 0.0671 |
| CGGCAGAG | -0.124 |
| AATCGTTG | -0.0757 |
| CCGCAACC | -0.0389 |
| AGAGGGAA | -0.21 |
| TGCATACA | -0.139 |
| CGGTACTA | -0.0556 |
| GTAGTCTA | -0.168 |
| CTACTAAG | -0.0685 |
| AATGTTCT | -0.0305 |
| AGAGCATG | -0.125 |
| ATCCCGAA | 0.0596 |
| TAAATTGA | 0.288 |
| AGTAAACT | 0.0484 |
| AAATAGGT | 0.208 |

| Sequence | PBM E-score |
| --- | --- |
| GCGGACGA | 0.0443 |
| ACCTGAAG | 0.023 |
| AGCGCGTA | 0.0668 |
| ACGCTCTC | -0.122 |
| TCATATGA | 0.177 |
| AGAGTGAC | -0.237 |
| GTAATTAA | 0.0563 |
| GGTATCTA | 0.0708 |
| CTAACGTA | 0.0416 |
| ACCCTTGC | -0.0913 |
| ACACCACA | -0.0192 |
| CGTTGAGA | -0.0342 |
| ACAACTTG | -0.0539 |
| AGGCTTTC | -0.00566 |
| CCTAATGA | 0.13 |
| ACTATTGG | -0.0275 |
| CTATGTCA | 0.018 |
| AAGAACCT | -0.0241 |
| CCCGAGCG | -0.146 |
| ACGGCAAC | -0.0958 |
| GATTATGC | 0.126 |
| GATATAAA | 0.0834 |

| Sequence | PBM E-score |
| --- | --- |
| ACACAGAA | -0.0541 |
| AACCGGGT | 0.108 |
| GCAGGTCA | 0.0148 |
| CAGGTCAG | -0.0848 |
| AATGCCAT | 0.1 |
| AACCGGTT | 0.129 |
| TCCGCCGA | 0.0254 |
| AGAATTAA | 0.195 |
| AAGCAGCC | -0.078 |
| GGAAACGA | 0.275 |
| AAATGGTG | 0.213 |
| TCAACTGA | 0.0803 |
| AGGATAGC | -0.0337 |
| ACCGTCTG | -0.00201 |
| ACACATGA | 0.179 |
| ATAGCGTG | -0.0588 |
| ATTGATTC | 0.23 |
| CACCTTAC | -0.0153 |
| AGGCTCTG | -0.0774 |
| TAGAAGGA | -0.202 |
